In the RNAGym collection of RNA variant scans (doi:10.1093/nar/gkz1192):
The source gives no read counts; variants with many changes may rest on few reads.

B1: CPEB3 Ribozyme (parent)
chain: UAACAGGGGGCCACAGCAGAAGCGUUCACGUCGCAGCCCCUGUCAGAUUCUGGUGAAUCUGCGAAUUCUGCUGUAUAUCUC

Variants of: B1
Test: self-cleavage, relative activity (ratio to wild type); higher = more cleavage; in vitro, sequencing
Procedure, shortened: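 Libraries of CPEB3 self-cleaving ribozyme mutants came from rounds of error-prone PCR and carried barcodes, which DNA sequencing matched to variants. In vitro transcription used T7 RNA polymerase at 37°C for 5 hours, with a further 15 min in DNase I before EDTA stopped the reaction; the ribozymes cleaved during both steps. The RNA was reverse transcribed with template switching and sequenced on Illumina. Relative activity is the cleaved/total read fraction of a variant divided by that of the unmutated ribozyme, averaged over three batches with at least 5 reads.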

With A13G A47G C50A U80C as the variant, how does the self-cleavage read?
Its self-cleavage is 0.67.

With A13G A45G U67G U69G as the variant, how does the self-cleavage read?
The self-cleavage was 0.19.

With A13G A45U U58C A64G as the variant, how does the self-cleavage read?
Its self-cleavage is 0.21.

With A13G A47G A65G as the variant, how does the self-cleavage read?
Its self-cleavage is 0.39.

For A13G A28U A35G G42A A64G U78C, which self-cleavage is on record?
Its self-cleavage is 0.

For A13G A35U U72A, which self-cleavage is on record?
The self-cleavage was 0.24.

With A13G A64G A77G as the variant, how does the self-cleavage read?
Its self-cleavage is 0.58.

For A13G A57G U66C U69C, which self-cleavage is on record?
Its self-cleavage is 0.29.

Which self-cleavage does the source give for A13G A35G U60A here?
Its self-cleavage is 0.22.

With A13G A21U U25C U76C as the variant, how does the self-cleavage read?
The self-cleavage was 0.2.

With A13G A28U U54A U67C as the variant, how does the self-cleavage read?
Its self-cleavage is 0.16.

With A13G C14A A45G U51C U58C U66C as the variant, how does the self-cleavage read?
The self-cleavage was 0.09.

For A13G C14U A20G U43C U76A, which self-cleavage is on record?
The self-cleavage was 0.15.

With A13G A45U U67C U80C as the variant, how does the self-cleavage read?
Its self-cleavage is 0.09.

With A13G A45G U69A as the variant, how does the self-cleavage read?
The self-cleavage was 0.45.

With A13G A28G U54C as the variant, how does the self-cleavage read?
The self-cleavage was 0.22.

For A13G A56G A64G, which self-cleavage is on record?
The self-cleavage was 0.6.

With A13G C14A A47G U49C A57G U69C as the variant, how does the self-cleavage read?
The self-cleavage was 0.06.

For A13G A57G G63U, which self-cleavage is on record?
Its self-cleavage is 1.03.

For A13G A47C G52U, which self-cleavage is on record?
Its self-cleavage is 0.19.

For A13G A35U C62U, which self-cleavage is on record?
The self-cleavage was 0.17.

Which self-cleavage does the source give for A13G A56U U80C here?
Its self-cleavage is 0.79.

With A13G A77U U78C as the variant, how does the self-cleavage read?
Its self-cleavage is 1.1.

For A13G A35G A65G, which self-cleavage is on record?
The self-cleavage was 0.38.

Which self-cleavage does the source give for A13G A21U A47U U66C U69C A77G here?
The self-cleavage was 0.07.

Which self-cleavage does the source give for A13G C14U U31C U43C here?
The self-cleavage was 0.19.

Which self-cleavage does the source give for A13G A45U A56G U60C U67A here?
The self-cleavage was 0.06.

With A13G A21U G52A U72C as the variant, how does the self-cleavage read?
The self-cleavage was 0.11.

Which self-cleavage does the source give for A13G C14A A21G U48C A57G U67C here?
The self-cleavage was 0.05.

Which self-cleavage does the source give for A13G A35U U41A here?
Its self-cleavage is 0.09.

With A13G A28C U31C A45G A56U as the variant, how does the self-cleavage read?
The self-cleavage was 0.06.

Which self-cleavage does the source give for A13G A28G G30U U41A A57C here?
Its self-cleavage is 0.07.

Which self-cleavage does the source give for A13G C17U A45C G52A U80C here?
The self-cleavage was 0.22.

Which self-cleavage does the source give for A13G A35G C40A U76A here?
Its self-cleavage is 0.08.

With A13G A47G U67A as the variant, how does the self-cleavage read?
The self-cleavage was 0.49.

For A13G A28G C32U U43C A56U U67C U72C, which self-cleavage is on record?
Its self-cleavage is 0.02.

With A13G A56G U60C U76C as the variant, how does the self-cleavage read?
The self-cleavage was 0.17.

Which self-cleavage does the source give for A13G C17U U41C A47U G63U A65G here?
Its self-cleavage is 0.15.

Which self-cleavage does the source give for A13G A28G U54C A75U here?
The self-cleavage was 0.26.

With A13G A28C C32U C40U A57G U69C as the variant, how does the self-cleavage read?
Its self-cleavage is 0.06.

For A13G A56C A77G, which self-cleavage is on record?
The self-cleavage was 0.37.

For A13G A75U C81G, which self-cleavage is on record?
Its self-cleavage is 1.25.

For A13G A35U A56G A64G A77G, which self-cleavage is on record?
Its self-cleavage is 0.23.

With A13G A45G U48C U69A U78A as the variant, how does the self-cleavage read?
Its self-cleavage is 0.07.

With A13G A65G U69C U78A U80A as the variant, how does the self-cleavage read?
The self-cleavage was 0.11.

With A13G A35G U41A G42A C71U as the variant, how does the self-cleavage read?
Its self-cleavage is 0.08.

For A13G A35U U41C A65G U80C, which self-cleavage is on record?
The self-cleavage was 0.14.

Which self-cleavage does the source give for A13G A64U U66C here?
Its self-cleavage is 0.15.

For A13G A28G U31A U43G A47G G63C U80A, which self-cleavage is on record?
Its self-cleavage is 0.03.

With A13G A35U U41G U54A U67C U69A as the variant, how does the self-cleavage read?
The self-cleavage was 0.04.

With A13G A28G U76A as the variant, how does the self-cleavage read?
The self-cleavage was 0.72.

Which self-cleavage does the source give for A13G A28U A64G U78C here?
The self-cleavage was 0.32.

For A13G A64G U66C A77C, which self-cleavage is on record?
The self-cleavage was 0.1.

Which self-cleavage does the source give for A13G A75G U78C here?
Its self-cleavage is 0.63.

Which self-cleavage does the source give for A13G A57U U67C here?
The self-cleavage was 0.08.

Which self-cleavage does the source give for A13G A35G U43A U51C here?
Its self-cleavage is 0.62.

With A13G A35G U48C U69C as the variant, how does the self-cleavage read?
Its self-cleavage is 0.12.

Which self-cleavage does the source give for A13G A56U U67C A77G here?
The self-cleavage was 0.16.

With A13G A21U U41C U43C U60C as the variant, how does the self-cleavage read?
Its self-cleavage is 0.56.

Which self-cleavage does the source give for A13G A35U C37A U41C A56G A57G here?
Its self-cleavage is 0.12.

For A13G A47G U80C, which self-cleavage is on record?
Its self-cleavage is 1.07.

For A13G A28U U51C U60A, which self-cleavage is on record?
Its self-cleavage is 0.11.

With A13G A45G A75U as the variant, how does the self-cleavage read?
The self-cleavage was 0.96.

With A13G A28G U58C as the variant, how does the self-cleavage read?
The self-cleavage was 0.16.

Which self-cleavage does the source give for A13G A65G U76C here?
The self-cleavage was 0.52.

With A13G A35C U41A A56G U78G C81U as the variant, how does the self-cleavage read?
Its self-cleavage is 0.1.

For A13G A56U U60A U72C U78C U80A, which self-cleavage is on record?
The self-cleavage was 0.19.

Which self-cleavage does the source give for A13G A64U U74C A75G here?
Its self-cleavage is 0.12.

With A13G A56U C59U as the variant, how does the self-cleavage read?
Its self-cleavage is 0.21.

Which self-cleavage does the source give for A13G A28U A56U A57G here?
The self-cleavage was 0.11.

With A13G C14U U66C U78C as the variant, how does the self-cleavage read?
Its self-cleavage is 0.31.

For A13G A56U U58G A64G U69C, which self-cleavage is on record?
Its self-cleavage is 0.09.

With A13G A65G U78A as the variant, how does the self-cleavage read?
The self-cleavage was 0.44.

Which self-cleavage does the source give for A13G A65G U78C here?
The self-cleavage was 0.34.

For A13G C14U A18U U31C U66G, which self-cleavage is on record?
Its self-cleavage is 0.04.

For A13G C17G U31A A35G, which self-cleavage is on record?
Its self-cleavage is 0.08.

With A13G A35U A56G U60C as the variant, how does the self-cleavage read?
The self-cleavage was 0.29.

With A13G A45G U51C A57G as the variant, how does the self-cleavage read?
Its self-cleavage is 0.29.

With A13G A28U U41C as the variant, how does the self-cleavage read?
The self-cleavage was 0.33.

For A13G A35G U66C U72C, which self-cleavage is on record?
Its self-cleavage is 0.4.

With A13G C14A U25C U49A U76A U78C as the variant, how does the self-cleavage read?
Its self-cleavage is 0.23.

Which self-cleavage does the source give for A13G A28G C34U here?
Its self-cleavage is 0.19.

For A13G C17U C29U, which self-cleavage is on record?
Its self-cleavage is 0.18.

With A13G A28G U31C U69C as the variant, how does the self-cleavage read?
Its self-cleavage is 0.
